Test results from the supplement of paper PMC5919970.
Where a name gives a salt, the structure may show the parent alone. Over roughly 2,000 compounds, “fractional viability relative to vehicle” has its median near 0.91; the lowest 2% begin near 0.045. The list shows a part of the results.

System: TYKNU
Experiment: fractional viability relative to vehicle; TYKNU is a high-grade serous ovarian cancer line; higher = less growth inhibition
Details: 72 h
Summary of the method: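 Drug treatment lasted 72 h, with cells grown at 37 °C in 5% CO2 in RPMI 1640 supplemented with 10% FBS. Beforehand, TYKNU control cells or their lentiCRISPRv2 knockout derivatives had been seeded at 500 cells per well into drug-stamped 384-well plates carrying a ~2100-compound library at 2 or 10 μM, in duplicate. Viability came from Cell Titer Glo luminescence, with averaged duplicate treatment wells normalised to duplicate control wells in the same plate position.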

[1] = 2uM, genotype: DNM1L knockout (sgDNM1L #1)
[2] = 2uM, genotype: sgCTRLA1 (non-targeting control)
[3] = 10uM, genotype: DNM1L knockout (sgDNM1L #1)
[4] = 10uM, genotype: sgCTRLA1 (non-targeting control)

Row | Structure (SMILES) | fractional viability [1] | fractional viability [2] | fractional viability [3] | fractional viability [4]
1 | COc1cc2c(cc1OC)[C@@H]1Cc3ccc(OC)c(OC)c3CN1CC2 [Rotundine] | 1.17 | 1.06 | 1.18 | 1.01
2 | C[C@H](NC(=O)CCc1nc2ccccc2c(=O)[nH]1)c1ccccc1 | 0.716 | 1.04 | 0.813 | 0.801
3 | NCC(=O)CCC(=O)O [5-Aminolevulinic acid HCl] | 0.872 | 1.15 | 0.799 | 1.03
4 | CN1CCC(CNc2ccc3ncc(-c4cccc(OC(F)(F)F)c4)n3n2)CC1 [SGI-1776 free base] | 0.734 | 0.829 | 0.0544 | 0.0567
5 | Cc1ccc(Sc2ccccc2N2CCNCC2)c(C)c1 | 0.789 | 0.989 | 0.073 | 0.0798
6 | CNC(CC(=O)O)C(=O)O [NMDA (N-Methyl-D-aspartic acid)] | 0.929 | 0.971 | 0.812 | 1.02
7 | C[C@H](NC(=O)Cc1cc(F)cc(F)c1)C(=O)N[C@H](C(=O)OC(C)(C)C)c1ccccc1 | 0.935 | 1.17 | 0.856 | 1.1
8 | Cc1cc(Nc2ccc(NC(=O)c3ccc(Nc4ccnc5ccccc45)cc3)cc2)nc(N)n1 | 0.0197 | 0.0121 | 0.0121 | 0.00969
9 | CN1C2=CC(=O)/C(=N\NC(N)=O)C=C2CC1S(=O)(=O)O (configuration not stated) [Carbazochrome sodium sulfonate (AC-17)] | 1.17 | 1.13 | 1.21 | 1.04
10 | C[C@]12CC[C@@H]3c4ccc(O)cc4CC[C@H]3[C@@H]1CC[C@@H]2OC(=O)CCC1CCCC1 [Estradiol Cypionate] | 1.09 | 1.14 | 0.417 | 0.805
11 | C[C@H](NC(=O)[C@@H](O)c1cc(F)cc(F)c1)C(=O)N[C@@H]1C(=O)N(C)c2ccccc2-c2ccccc21 | 1.19 | 1.12 | 0.924 | 0.966
12 | CC(C)N(CCCNC(=O)Nc1ccc(C(C)(C)C)cc1)C[C@H]1O[C@@H](n2ccc3c(N)ncnc32)[C@H](O)[C@@H]1O | 0.81 | 1.04 | 0.754 | 0.766
13 | O=c1cc(-c2ccc(O)c(O)c2)oc2cc(O)cc(O)c12 [Luteolin] | 1 | 1.11 | 0.934 | 0.982
14 | CC(=O)Nc1ccc(NC(=S)NC(=O)c2ccc(C(C)(C)C)cc2)cc1 [Tenovin-1] | 0.152 | 0.144 | 0.118 | 0.0954
15 | O=C(NOCCO)c1ccc2cncn2c1Nc1ccc(I)cc1F | 0.235 | 0.202 | 0.142 | 0.114
16 | CCOc1cc(C(=O)N2CCC(N3CCN(C)CC3)CC2)ccc1Nc1ncc2c(n1)N(C1CCCC1)c1ccccc1C(=O)N2C | 0.546 | 0.536 | 0.0647 | 0.0743
17 | O=C(Cc1ccc(-c2ccc(OCCN3CCOCC3)cc2)cn1)NCc1ccccc1 | 0.104 | 0.121 | 0.126 | 0.113
18 | Nc1ncn([C@H]2C[C@H](O)[C@@H](CO)O2)c(=O)n1 [Decitabine] | 1.06 | 0.994 | 0.942 | 0.772
19 | O=C1Cc2cc(CCN3CCN(c4nsc5ccccc45)CC3)c(Cl)cc2N1 [Ziprasidone HCl] | 1.32 | 1.16 | 0.961 | 0.903

Row | Structure (SMILES) | fractional viability [1] | fractional viability [2] | fractional viability [3] | fractional viability [4]
20 | CC(C)/N=c1\cc2n(-c3ccc(Cl)cc3)c3ccccc3nc-2cc1Nc1ccc(Cl)cc1 [Clofazimine] | 1.31 | 1.19 | 1.12 | 1.14
21 | CC1CCc2c(N3CCC(O)CC3)c(F)cc3c(=O)c(C(=O)O)cn1c23 (configuration not stated) [Nadifloxacin] | 1.15 | 1.21 | 0.868 | 1.02
22 | CCCN(CCc1cccs1)[C@H]1CCc2c(O)cccc2C1 [Rotigotine] | 0.851 | 1.11 | 0.615 | 1.01
23 | Clc1ccc(COC(Cn2ccnc2)c2ccc(Cl)cc2Cl)c(Cl)c1 (configuration not stated) [Miconazole Nitrate] | 0.949 | 0.989 | 0.529 | 0.799
24 | Clc1ccc(COC(Cn2ccnc2)c2ccc(Cl)cc2Cl)c(Cl)c1 (configuration not stated) [Miconazole] | 0.807 | 1.09 | 0.396 | 0.77
25 | Cc1cc(=O)n(-c2ccccc2)n1C [Antipyrine] | 1.1 | 1.16 | 0.859 | 1.07
26 | CO[C@H]1O[C@@H]2O[C@@]3(C)CC[C@H]4[C@H](C)CC[C@@H]([C@H]1C)[C@@]24OO3 [Artemether] | 0.731 | 0.868 | 0.592 | 0.8
27 | CC(C)(C)C[C@@H]1N[C@@H](C(=O)N[C@H]2CC[C@H](O)CC2)[C@H](c2cccc(Cl)c2F)[C@]12C(=O)Nc1cc(Cl)ccc12 | 0.274 | 0.277 | 0.259 | 0.225
28 | O=c1c2ccccc2oc2ccccc12 [Xanthone] | 0.957 | 1.15 | 0.75 | 1.1
29 | NC12CC3CC(CC(C3)C1)C2 [Amantadine HCl] | 1.02 | 1.03 | 0.965 | 1.02
30 | Cn1ncc(Cl)c1-c1cc(C(=O)N[C@H](CN)Cc2cccc(F)c2)sc1Cl | 0.644 | 0.826 | 0.455 | 0.439
31 | Cc1c(Cc2ccc3ccccc3n2)c2cc(F)ccc2n1CC(=O)O | 1.09 | 1.05 | 0.873 | 1.1
32 | CO[C@@H](C(=O)N1Cc2[nH]nc(NC(=O)c3ccc(N4CCN(C)CC4)cc3)c2C1)c1ccccc1 | 0.503 | 0.521 | 0.486 | 0.427
33 | CN1CCN(C2=Nc3cc(Cl)ccc3Nc3ccccc32)CC1 [Clozapine] | 0.997 | 1.05 | 0.919 | 0.877
34 | C=CC(=O)N1CCC(Oc2cc3c(Nc4ccc(Cl)c(Cl)c4F)ncnc3cc2OC)CC1 [Poziotinib (HM781-36B)] | 0.879 | 0.865 | 0.528 | 0.464
35 | Brc1ccc([C@H]2CN3CCSC3=N2)cc1 [(-)-p-Bromotetramisole Oxalate] | 0.693 | 0.908 | 0.866 | 0.668
36 | CCCCCCCCCCC[C@@H](C[C@@H]1OC(=O)[C@H]1CCCCCC)OC(=O)[C@H](CC(C)C)NC=O [Orlistat] | 0.87 | 0.965 | 0.499 | 0.807
37 | CC1(C)CCC(CN2CCN(c3ccc(C(=O)NS(=O)(=O)c4ccc(NCC5CCOCC5)c([N+](=O)[O-])c4)c(Oc4cnc5[nH]ccc5c4)c3)CC2)=C(c2ccc(Cl)cc2)C1 | 0.697 | 0.921 | 0.852 | 0.706
38 | CS(=O)(=O)c1cccc(CNc2nc(Nc3ccc4c(c3)CCC(=O)N4)ncc2C(F)(F)F)c1 | 0.995 | 0.99 | 0.579 | 0.534
